Measured values from PubChem BioAssay (NCI).
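1) Cells in 96-well plates. 2) Compound, 48 h, 5 concentrations. 3) Linear interpolation between surrounding doses. 4) Unreached endpoint = highest concentration. GI50 is the concentration that inhibits growth by half. The concentration for full growth arrest is given as TGI.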 Numbered stars: 1 amine (or outer) side, 2 acyl side, 3 side chain; on linkers, the order of the positions; unused ones are H or OH. Square brackets hold non-standard residues; d marks the D form. Peptide text beside a SMILES is read from it. * marks the point of attachment. X9 = C/C=C/CC(C)C(O)[C@H](N[*:1])C(=O)[*:2]; Leu(ol) = CC(C)C[C@H](N)CO; Iva = CC[C@](C)(N)C(=O)O; Octanoyl = CCCCCCCC(=O)*; Aib = CC(C)(N)C(=O)O

Tested on: NCI-H322M lung
Assay: NCI-60 cell line screen, 48 h

`COc1ccc([C@@H]2C(=O)N(c3cc(OC)c(OC)c(OC)c3)[C@H]2c2ccc(OC)c(O)c2)cc1` gave a GI50 of 0.0853 µM and a TGI of over 100 µM.

With `C=CCN(C)S(=O)(=O)/N=C1\NC(=O)NC1=C(Cl)Cl` the GI50 was 3.47 µM and the TGI was 13.5 µM.

`C/C=C/CC(C)C(O)[C@H](NC(=O)[C@@H]1CCCN1C(=O)C(C)(C)NC(=O)CCCCCCC)C(=O)N[C@@](C)(CC)C(=O)N[C@@H](CCC(N)=O)C(=O)N[C@H](CCC(N)=O)C(=O)NC(C)(C)C(=O)NC(C)(C)C(=O)N[C@@H](CCC(N)=O)C(=O)N[C@H](CC(C)C)C(=O)N[C@H](CO)CC(C)C` (stereo partly drawn) (Octanoyl-[Aib]P[X9][Iva]Q[dQ][Aib][Aib]Q[dL][Leu(ol)]) showed a GI50 of 11.2 µM and a TGI of 23.7 µM.

In the case of `O=C(CCC(=O)N1CCOCC1)OCCCCCCSc1ccc([N+](=O)[O-])c2nonc12`, the GI50 is reported as 3.65 µM and the TGI is reported as 15.3 µM.
